# Experimental data published in PubChem BioAssay (NCATS).
# Where “and” joins values, the source holds several entries; their conditions need not be identical. Equal values may be shown once. Inconclusive means that the source gave no clear call. Such entries were picked first, then a sample of the others. Potencies beside an inconclusive call are fits to weak or partial responses and may not hold up. Calls of active or inactive are those of the source. Calls come from the whole dose curve; as a rule, active = well fitted curve in the direction sought with a large enough effect; inconclusive = small, poorly fitted or top-dose-only effect, or another doubt; inactive = no such curve, though single readings can be large; an effect the other way counts as inactive or inconclusive.
# Assay: qHTS of pediatric cancer cell lines to identify multiple opportunities for drug repurposing: Primary screen for SK-N-MC cells (AID 1347093);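 for activity change, negative = cytotoxic: plate controls were DMSO neutral control for no effect and bortezomib for full effect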
# Conditions: SK-N-MC viability, CellTiter-Glo luminescence, 48 h; activity change, negative = cytotoxic: at 46 µM (top of the series)
# Outline: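 Metabolically active cells were quantified by ATP-dependent luminescence (CellTiter-Glo, 15 min at room temperature) following 48 h treatment. Cells had been plated at 500-1,000 per well and settled for 5 h beforehand.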
# Potency is the fitted concentration of half-maximal effect; tags give direction and shape of the fitted curve.
SMILES,Potency,"activity change, negative = cytotoxic"
COc1ccc(CCN(C)CCCOc2ccc(S(=O)(=O)c3[nH]c4ccccc4c3C(C)C)cc2)cc1OC,"inconclusive: 33.2 µM [cytotoxic, single point]",–
CC(C)(N)C(=O)N[C@H](COCc1ccccc1)C(=O)N1CCC2(CC1)CN(S(C)(=O)=O)c1ccccc12,active: 23.5 µM,–
Cn1cc(-c2ccc3nnc(Sc4ccc5ncccc5c4)n3n2)cn1,"inconclusive: 37.2 µM [cytotoxic, single point]",–
O=C(Nc1cccc2c(=O)cc(-c3nn[nH]n3)oc12)c1ccc(OCCCCc2ccccc2)cc1,"inconclusive: 37.2 µM [cytotoxic, single point]",–
CNC(=O)c1c(-c2ccc(F)cc2)oc2cc(N(CCO)S(C)(=O)=O)c(C3CC3)cc12,"inconclusive: 29.6 µM [cytotoxic, partial curve, poor fit]",–
Cc1cc(OCCCS(C)(=O)=O)cc(C)c1-c1cccc(COc2ccc3c(c2)OC[C@H]3CC(=O)O)c1,"inconclusive: 29.6 µM [cytotoxic, single point]",–
CCOc1cc2ncc(C#N)c(Nc3ccc(F)c(Cl)c3)c2cc1NC(=O)C=CCN(C)C,active: 0.0469 µM,–
CCCCN(CCCC)CC(O)c1cc(Cl)cc2c1-c1ccc(Cl)cc1C2=Cc1ccc(Cl)cc1 (configuration not stated),"inconclusive: 37.2 µM [cytotoxic, single point]",–
CS(=O)(=O)Nc1ccc([N+](=O)[O-])cc1Oc1ccccc1,"inconclusive: 29.9 µM [cytotoxic, single point]",–
C=CC(=O)Nc1cccc(Oc2nc(Nc3ccc(N4CCN(C)CC4)cc3OC)ncc2Cl)c1,"inconclusive: 0.0037 µM [cytotoxic, full curve, poor fit]",–
COc1cc2nccc(Oc3ccc(NC(=O)Nc4cc(C)on4)c(Cl)c3)c2cc1OC,"inconclusive: 0.372 µM [cytotoxic, full curve, poor fit]",–
Cc1c(-c2ccc(O)cc2)n(Cc2ccc(OCCN3CCCCCC3)cc2)c2ccc(O)cc12,"inconclusive: 29.6 µM [cytotoxic, single point] and inconclusive: 33.5 µM [cytotoxic, single point]",–
Nc1cccc(S(=O)(=O)N2CCCN(S(=O)(=O)c3ccc4c(c3)OCCO4)CC2)c1,–,inactive: -17%
CC1=C(C(=O)Nc2cc3cn[nH]c3cc2F)C(c2ccc(C(F)(F)F)cc2)CC(=O)N1 (configuration not stated),–,inconclusive: -36.7% [cytotoxic]
Nc1ncnc2c1c(-c1cccc(OCc3ccccc3)c1)cn2C1CC(CN2CCC2)C1 (configuration not stated),"inconclusive: 2.96 µM [cytotoxic, full curve, poor fit]",–
C[C@H](CCC(=O)O)[C@H]1CC[C@H]2[C@H]3[C@@H](CC[C@]12C)[C@@]1(C)CC[C@@H](O)C[C@H]1C[C@@H]3O,"inconclusive: 37.2 µM [cytotoxic, single point]",–

# Assay: qHTS of pediatric cancer cell lines to identify multiple opportunities for drug repurposing: Primary screen for BT-37 cells (AID 1347094);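 for activity change, negative = cytotoxic: plate controls were DMSO for no effect and bortezomib for full effect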
# Conditions: BT-37 viability, CellTiter-Glo luminescence, 48 h; series mostly up to 57.3 µM; activity change, negative = cytotoxic: at the top concentration
# Outline: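 Viability was measured as metabolically active cells after 48 hours of treatment, read by CellTiter-Glo luminescence. Compounds were tested at multiple final concentrations, giving concentration-response curves.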
SMILES,Potency,"activity change, negative = cytotoxic"
CC(C)(N)C(=O)N[C@H](COCc1ccccc1)C(=O)N1CCC2(CC1)CN(S(C)(=O)=O)c1ccccc12,"inconclusive: 27.3 µM [cytotoxic, partial curve]",–
CCN(CC)CCNC(=O)c1ccc2nc(-c3ccccc3)c(-c3ccc(CN4CCC(n5c(=O)[nH]c6ccccc65)CC4)cc3)nc2c1,active: 10.9 µM,–
S=P(N1CC1)(N1CC1)N1CC1,"inconclusive: 37.6 µM [cytotoxic, partial curve, poor fit] and inconclusive: 21.7 µM [cytotoxic, partial curve]",–
CCNC(=O)Nc1ccc(Oc2ncnc(N)c2C=NOC)cc1Cl,–,inactive: -2.93%
COc1ccccc1-c1cccc(-c2c(O)c3cc(C#N)c(Cl)cc3[nH]c2=O)c1,"inconclusive: 49.8 µM [cytotoxic, single point]",–
COc1ccc(-c2ccc3cc(C(=O)O)ccc3c2)cc1C12CC3CC(CC(C3)C1)C2,"inconclusive: 34.3 µM [cytotoxic, single point]",–
CNC(=O)c1c(-c2ccc(F)cc2)oc2cc(N(CCO)S(C)(=O)=O)c(C3CC3)cc12,"inconclusive: 21.7 µM [cytotoxic, partial curve, poor fit]",–
Cc1cc(OCCCS(C)(=O)=O)cc(C)c1-c1cccc(COc2ccc3c(c2)OC[C@H]3CC(=O)O)c1,"inconclusive: 21.7 µM [cytotoxic, partial curve]",–
CCOc1cc2ncc(C#N)c(Nc3ccc(F)c(Cl)c3)c2cc1NC(=O)C=CCN(C)C,"inconclusive: 0.243 µM [cytotoxic, full curve]",–
CCN(CC)CCOc1ccc(Cc2ccccc2)cc1,"inconclusive: 21.9 µM [cytotoxic, single point] and inconclusive: 21.7 µM [cytotoxic, partial curve]",–
C=CC(=O)Nc1cccc(Oc2nc(Nc3ccc(N4CCN(C)CC4)cc3OC)ncc2Cl)c1,active: 27.3 µM,–
CC(C)OC(=O)OCOP(=O)(CO[C@H](C)Cn1cnc2c(N)ncnc21)OCOC(=O)OC(C)C,"inconclusive: 15.5 µM [cytotoxic, partial curve, poor fit]",–
C[C@@H]1CC=CC=CC=CC=C[C@@H](O[C@@H]2O[C@H](C)[C@@H](O)[C@H](N)[C@H]2O)C[C@@H]2O[C@](O)(C[C@@H](O)C[C@@H]3O[C@@H]3C=CC(=O)O1)C[C@H](O)[C@@H]2C(=O)O,"inconclusive: 6.85 µM [cytotoxic, full curve]",–
CN(C)CCC=C1c2ccccc2C=Cc2ccccc21,"inconclusive: 17.4 µM [cytotoxic, single point]",–
C[C@]12C=CC(=O)C=C1CC[C@@H]1[C@@H]2[C@@H](O)C[C@@]2(C)[C@@H]1CC[C@]2(O)C(=O)CO,"inconclusive: 21.7 µM [cytotoxic, partial curve]",–
C[C@H](CCC(=O)O)[C@H]1CC[C@H]2[C@H]3[C@@H](CC[C@]12C)[C@@]1(C)CC[C@@H](O)C[C@H]1C[C@@H]3O,active: 27.3 µM,–
